pIC50: −log10 of the molar value. IC50 is the fitted dose that halves viability relative to control wells, and lower means more sensitive; a limit (>, <) means that the fit lies beyond the doses tested. The AUC spans the tested range (256-fold, ending at the top dose) of the same fit; it is 1 without any effect and falls as sensitivity rises. An inferred top dose is not printed in the source and was worked back from the curve model. A value given as a limit tells only on which side of the number the result lay.

Compound in this assay: Cn1cc(C2=C(c3cn(C4CCN(Cc5ccccn5)CC4)c4ccccc34)C(=O)NC2=O)c2ccccc21 [LY317615]
Put plainly: Viability of human cancer cell lines after 72 h of drug (GDSC screen). The settings on record: top dose inferred. The protocol:
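Human cancer cell lines in 384-well plates, medium with 10% serum, drug for 72 h over a 256-fold dose range (nine 2-fold or five 4-fold steps up to the top dose). Adherent lines were fixed and stained with the nucleic acid dye Syto60, suspension lines read with resazurin; signal relative to control wells, capped at 0 and 100%. One two-parameter sigmoid per drug and line, fitted in a mixed model over all curves with the slope shared within a line.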
For “NCI-H716 (large intestine, suspension, top dose 20 µM)”, the AUC was 0.776 and the negative-log IC50 (pIC50) (in general, the negative decadic logarithm of the IC50, by convention in mol/L) is 5.00.
Turning to “GR-ST (lymphoblastic leukaemia, suspension, top dose 20 µM)”, the AUC was 0.866 and the pIC50 was < 4.70.
As to “42-MG-BA (glioma, adherent, top dose 20 µM)”, the AUC amounted to 0.925 and the negative logarithm of the IC50 (pIC50) is < 4.70.
Taken in the same sequence, the figures for “NCI-H23 (lung adenocarcinoma, adherent, top dose 20 µM)” were 0.685 and 5.39.
With “NCI-H1869 (lung squamous cell carcinoma, adherent, top dose 20 µM)”, the AUC was determined as 0.607 and the pIC50 is 5.59.
For the cell line “KMRC-1 (kidney, adherent, top dose 20 µM)”, the AUC turned out to be 0.982 and the pIC50 is < 4.70.
Turning to “NOS-1 (osteosarcoma, adherent, top dose 20 µM)”, the AUC stood at 0.823 and the pIC50 was 4.81.
For “KYSE-70 (oesophagus, adherent, top dose 20 µM)” the same measures were 0.889 and < 4.70.
Consider “SLVL (B-cell lymphoma, suspension, top dose 20 µM)”, for which the AUC turned out to be 0.576 and the negative-log IC50 (pIC50) was 5.69.
On to “NCI-H1563 (lung adenocarcinoma, adherent, top dose 20 µM)”, for which the AUC came to 0.54 and the negative-log IC50 (pIC50) is 5.79.
As to “REH (B-cell leukaemia, suspension, top dose 20 µM)”, the AUC amounted to 0.67 and the pIC50 was 5.44.
For the cell line “SK-OV-3 (ovary, adherent, top dose 20 µM)”, the AUC was 0.381 and the pIC50 was 6.27.
For “JJN-3 (haematopoietic neoplasm, suspension, top dose 20 µM)”, the AUC was determined as 0.893 and the pIC50 was 4.79.
As to “TGW (neuroblastoma, adherent, top dose 20 µM)”, the AUC was determined as 0.91 and the negative-log IC50 (pIC50) is < 4.70.
For “NCI-H2052 (mesothelioma, adherent, top dose 20 µM)”, the AUC came out at 0.969 and the negative-log IC50 (pIC50) was < 4.70.
In the case of “U-87-MG (glioma, adherent, top dose 20 µM)”, the AUC amounted to 0.96 and the negative logarithm of the IC50 (pIC50) is < 4.70.
Taken in the same sequence, the figures for “Hs-445 (Hodgkin lymphoma, suspension, top dose 20 µM)” were 0.56 and 5.75.
For “LU-139 (small cell lung carcinoma, suspension, top dose 20 µM)” the same measures were 0.785 and 4.95.
On to “8505C (thyroid, adherent, top dose 20 µM)”, for which the AUC was found to be 0.908 and the pIC50 was < 4.70.
In the case of “NCI-H1876 (small cell lung carcinoma, adherent, top dose 20 µM)”, the AUC worked out at 0.974 and the pIC50 is < 4.70.
Regarding “MFM-223 (breast, adherent, top dose 20 µM)”, the AUC turned out to be 0.953 and the pIC50 is < 4.70.
For “BCPAP (thyroid, adherent, top dose 20 µM)” the same measures were 0.805 and 5.05.
In the case of “OCUM-1 (stomach, adherent, top dose 20 µM)”, the AUC was determined as 0.987 and the pIC50 was < 4.70.
For “A2780 (ovary, semi-adherent, top dose 20 µM)” the same measures were 0.726 and 5.25.
For “23132-87 (stomach, adherent, top dose 20 µM)”, the AUC came out at 0.971 and the negative logarithm of the IC50 (pIC50) is < 4.70.
Take “HCC1187 (breast, suspension, top dose 20 µM)”: the AUC is 0.912 and the pIC50 was < 4.70.
For the cell line “CAL-27 (head and neck, adherent, top dose 20 µM)”, the AUC was 0.873 and the pIC50 was 4.70.
For the cell line “SK-MEL-30 (melanoma, adherent, top dose 20 µM)”, the AUC was determined as 0.93 and the pIC50 was < 4.70.
As to SW626 (ovary, adherent, top dose 20 µM), the AUC is 0.76 and the pIC50 was 5.08.
“NCI-H2030 (lung adenocarcinoma, adherent, top dose 20 µM)”: the AUC came to 0.511 and the negative logarithm of the IC50 (pIC50) was 5.87.
For “UACC-893 (breast, adherent, top dose 20 µM)”, the AUC turned out to be 0.842 and the pIC50 is < 4.70.
For “LoVo (large intestine, adherent, top dose 20 µM)”, the AUC came to 0.987 and the pIC50 was < 4.70.
Consider “DBTRG-05MG (glioma, adherent, top dose 20 µM)”, for which the AUC stood at 0.896 and the pIC50 is < 4.70.
“EM-2 (chronic myeloid leukaemia, suspension, top dose 20 µM)”: the AUC was determined as 0.83 and the negative logarithm of the IC50 (pIC50) was 4.83.
On to “PANC-08-13 (pancreas, adherent, top dose 20 µM)”, for which the AUC came to 0.617 and the pIC50 was 5.54.
Take “NCI-H748 (small cell lung carcinoma, suspension, top dose 20 µM)”: the AUC was determined as 0.886 and the pIC50 was < 4.70.
For “SHP-77 (small cell lung carcinoma, semi-adherent, top dose 20 µM)”, the AUC worked out at 0.919 and the pIC50 is < 4.70.
Consider “PANC-02-03 (pancreas, adherent, top dose 20 µM)”, for which the AUC was determined as 0.852 and the negative-log IC50 (pIC50) was < 4.70.
Turning to “SU8686 (pancreas, adherent, top dose 20 µM)”, the AUC came out at 0.895 and the pIC50 was < 4.70.
For “MN-60 (B-cell leukaemia, suspension, top dose 20 µM)”, the AUC was 0.841 and the negative logarithm of the IC50 (pIC50) was 4.83.
For JHH-6 (liver, adherent, top dose 20 µM) the same measures were 0.987 and < 4.70.
For the cell line “RF-48 (stomach, adherent, top dose 20 µM)”, the AUC was 0.827 and the negative logarithm of the IC50 (pIC50) is 4.85.
For “VMRC-MELG (melanoma, adherent, top dose 20 µM)” the same measures were 0.989 and < 4.70.
With “H2591 (mesothelioma, adherent, top dose 20 µM)”, the AUC amounted to 0.928 and the negative logarithm of the IC50 (pIC50) was < 4.70.
As to “VMRC-RCZ (kidney, adherent, top dose 20 µM)”, the AUC turned out to be 0.512 and the negative logarithm of the IC50 (pIC50) was 5.87.
As for “QGP-1 (pancreas, adherent, top dose 20 µM)”, the AUC is 0.973 and the pIC50 was < 4.70.
Turning to “NCI-H1755 (lung adenocarcinoma, adherent, top dose 20 µM)”, the AUC was 0.351 and the negative logarithm of the IC50 (pIC50) is 6.35.
“ES1 (Ewing sarcoma, adherent, top dose 20 µM)”: the AUC amounted to 0.866 and the pIC50 was 4.76.
Take “EC-GI-10 (oesophagus, adherent, top dose 20 µM)”: the AUC is 0.989 and the pIC50 was < 4.70.
Taken in the same sequence, the figures for “H2803 (mesothelioma, adherent, top dose 20 µM)” were 0.821 and 4.85.
On to “SW684 (fibrosarcoma, adherent, top dose 20 µM)”, for which the AUC is 0.982 and the negative-log IC50 (pIC50) is < 4.70.
Consider “EW-13 (Ewing sarcoma, suspension, top dose 20 µM)”, for which the AUC came out at 0.519 and the pIC50 is 5.85.
Taken in the same sequence, the figures for “DU-145 (prostate, adherent, top dose 20 µM)” were 0.945 and < 4.70.
Taken in the same sequence, the figures for “MKN28 (stomach, adherent, top dose 20 µM)” were 0.935 and < 4.70.
Take “HCC2998 (large intestine, adherent, top dose 20 µM)”: the AUC turned out to be 0.893 and the pIC50 was < 4.70.
Take “OSC-19 (head and neck, adherent, top dose 20 µM)”: the AUC amounted to 0.934 and the negative-log IC50 (pIC50) is < 4.70.
Take “CAL-51 (breast, adherent, top dose 20 µM)”: the AUC is 0.988 and the negative logarithm of the IC50 (pIC50) is < 4.70.
As to K5 (thyroid, adherent, top dose 20 µM), the AUC came out at 0.939 and the pIC50 was < 4.70.
Taken in the same sequence, the figures for “COR-L279 (small cell lung carcinoma, suspension, top dose 20 µM)” were 0.988 and < 4.70.
For the cell line “SK-MEL-3 (melanoma, adherent, top dose 20 µM)”, the AUC came to 0.981 and the negative logarithm of the IC50 (pIC50) was < 4.70.
In the case of “TE-441-T (rhabdomyosarcoma, adherent, top dose 20 µM)”, the AUC came out at 0.988 and the pIC50 is < 4.70.
Turning to “NCI-H3122 (lung adenocarcinoma, adherent, top dose 20 µM)”, the AUC is 0.746 and the negative-log IC50 (pIC50) was 5.19.
For “NCI-H209 (small cell lung carcinoma, suspension, top dose 20 µM)” the same measures were 0.985 and < 4.70.
On to “AM-38 (glioma, semi-adherent, top dose 20 µM)”, for which the AUC came to 0.944 and the pIC50 was < 4.70.
As for “SK-HEP-1 (liver, adherent, top dose 20 µM)”, the AUC is 0.989 and the pIC50 is < 4.70.
“SCC-9 (head and neck, adherent, top dose 20 µM)”: the AUC was 0.548 and the pIC50 is 5.76.
In the case of “C-33-A (cervix, adherent, top dose 20 µM)”, the AUC was 0.974 and the pIC50 was < 4.70.

Values taken from the supplement of paper PMC4967469.
